PubChem BioAssay AID1345082 (National Center for Advancing Translational Sciences (NCATS), 2018)
Among all 94,000 compounds or so, about 4,000 (4.3%) were called active. Inconclusive results, whose numbers are uncertain, are shown with a selection of clear calls. The call rests on the fitted dose curve; in most records, active means well fitted inhibition curve with a large enough effect; inconclusive means small, poorly fitted or top-dose-only effect; inactive means no such curve, though single readings can be large or run the other way. Where the call is inconclusive, the potency comes from a doubtful curve fit.
Potency means the concentration at half of the fitted maximal effect; tags describe the fitted curve by direction and shape.

Assay: Cytotoxic Profiling in NIH 3T3 Cell Line of Diverse Libraries Using Quantitative High-Throughput Screening; further: nearly all actives have a fitted effect of over 55% in size
Conditions: NIH 3T3 viability, CellTiter-Glo ATP luminescence, 48-72 h; series mostly up to 96.7 µM
In short: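 First NIH 3T3 cells are plated at 400 cells/well; next compound is pinned in; then plates incubate 48 or 72 hr at 37 °C; finally CellTiter-Glo is added and luminescence read after 10 min.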
For `c1ccc([C@@H]2C[C@@H]3C[C@H](NC4CCCCCC4)C[C@@H]3CO2)cc1`, the Potency was inconclusive: 44.7 µM [inhibitor, partial curve]. For `O=C(Cc1cccc(Cl)c1)NC1CCCN(c2ccc3nnc(-c4ccccc4)n3n2)C1` (configuration not stated), the Potency was active: 35.5 µM. For `CCn1cc(S(=O)(=O)N2CCC(Oc3ccc(-c4noc(C5CC5)n4)cc3)C2)cn1` (configuration not stated), the Potency was inconclusive: 50.1 µM [inhibitor, partial curve, poor fit]. With `CC(=O)N1CCC(C(=O)N2CCC(n3cc(-c4nc(-c5ccccc5)no4)nn3)CC2)CC1` the Potency was “inactive”. For `COc1ccc(CN2C(=O)[C@H](OC)[C@@H]2C2=CCN(C(=O)C3CCCC3)CC2)cc1`, the Potency was inconclusive: 39.8 µM [inhibitor, partial curve, poor fit]. For `O=C(N1CCOCC1)N1CCCN(c2ccc3nnc(-c4ccccc4)n3n2)CC1`, the Potency was “inactive”. With `O=C(Cc1cccc(Cl)c1)NCC1COc2ncncc2C(=O)N1CC1CC1` (configuration not stated) the Potency was inconclusive: 25.1 µM [inhibitor, full curve, poor fit]. In the case of `CCc1nn(-c2ccc(OC)cc2)c(Oc2ccccc2F)c1CCC(=O)N(CC)CC`, the Potency was active: 44.7 µM. In the case of `COCCn1c(=O)c(C(=O)N2CCC(Cc3ccccc3)CC2)nc2cccnc21`, the Potency was “inactive”. For `CC(=O)N1CCC(N2CC3(C2)C(=O)N(Cc2ccccc2Cl)C(=O)[C@@H]2C[C@@H](O)CN23)CC1`, the Potency was “inactive”. With `O=C(Nc1ccc(F)cc1)N1CCC(CCNC(=O)C2(c3ccccc3)CC2)CC1` the Potency was inconclusive: 44.7 µM [inhibitor, partial curve, poor fit]. For `CCn1ccc(C(=O)N2CCc3c(nc(-c4ccc(OC)cc4)[nH]c3=O)C2)n1`, the Potency was inconclusive: 44.7 µM [inhibitor, partial curve, poor fit]. For `COc1ccc(-c2ccnc3nc(C4CC4)nn23)cc1`, the Potency was inconclusive: 50.1 µM [inhibitor, partial curve, poor fit]. For `CCc1nnc(CN(C)C(=O)c2cnc(-c3ccc(C)cc3)[nH]c2=O)o1`, the Potency was “inactive”. For `CC1=C[C@@H](CN2CCOCC2)[C@H](C(C)C)C[C@H]1Cc1nnc(-c2ccccc2)o1`, the Potency was inconclusive: 63.1 µM [inhibitor, partial curve, poor fit]. For `CC(=O)N1CCC(NC[C@@H]2C=C(C)[C@H](Cc3nc4ccc(Cl)cc4[nH]3)C[C@H]2C(C)C)CC1`, the Potency was “inactive”. In the case of `Cn1nccc1C(=O)N1[C@@H]2CC[C@H]1CC(NC(=O)c1ccc(F)cc1)C2` (some centres not stated), the Potency was “inactive”. With `O=C1Nc2cnccc2C2(CCN([S+](=O)([O-])c3cccc(C(F)(F)F)c3)C2)O1` (configuration not stated) the Potency was inconclusive: 70.8 µM [inhibitor, partial curve, poor fit]. With `O=c1cc(-c2ccncc2)oc2c(-c3ccccc3O)nccc12` the Potency was “inactive”. For `O=C1N2CCCC2CN1C1CCN(Cc2ccc(F)cc2)CC1` (configuration not stated), the Potency was “inactive”. With `COc1ccccc1NC(=O)Cn1c(C)cc2nc3n(c(=O)c21)CCC3` the Potency was “inactive”. With `Cc1cccc(CNC(=O)c2cc(NC(=O)C(C)C)cc3nc(C)ccc23)c1` the Potency was inconclusive: 50.1 µM [inhibitor, partial curve, poor fit]. With `CCN(Cc1nc(C)no1)C(=O)c1cc(COc2ccccc2F)[nH]n1` the Potency was “inactive”. With `Cc1ccc(S(=O)(=O)N2CCC(CCC(=O)NCCc3ccccc3)CC2)cc1` the Potency was inconclusive: 70.8 µM [inhibitor, single point]. With `CC(C)c1nc(-c2ccc(OC3CCN(C(=O)Cc4cccc(F)c4)C3)cc2)no1` (configuration not stated) the Potency was inconclusive: 44.7 µM [inhibitor, partial curve, poor fit]. For `O=C1Nc2ccccc2CC12CCCN(Cc1ccc(F)cc1)C2` (configuration not stated), the Potency was “inactive”. For `CCn1nc(C)c(CCC(=O)NC2CCCc3c2[nH]c2c(Cl)cccc32)c1C` (configuration not stated), the Potency was inconclusive: 44.7 µM [inhibitor, partial curve, poor fit]. In the case of `c1ccc(CN2CCNc3cc(NCc4cccnc4)ncc3C2)cc1`, the Potency was active: 50.1 µM. With `COc1ccc(Nc2cc3c(cn2)NCCN(Cc2ccccc2)C3)cc1` the Potency was inconclusive: 50.1 µM [inhibitor, partial curve, poor fit]. For `COc1cccc(-c2c(C(=O)NCc3cccs3)nc3sccn23)c1`, the Potency was inconclusive: 50.1 µM [inhibitor, partial curve, poor fit]. For `CN1c2cc(C(=O)NCc3ccc(F)c(Cl)c3)ccc2C(=O)N2CCCCC21` (configuration not stated), the Potency was inconclusive: 56.2 µM [inhibitor, partial curve, poor fit]. With `COc1cccc(-c2cc(-c3cccnc3)c3cncn3c2)c1OC` the Potency was inconclusive: 50.1 µM [inhibitor, partial curve, poor fit]. In the case of `CCN(Cc1ccccc1)C(=O)CC1CCCN(c2cnn(CC3CC3)c(=O)c2)C1` (configuration not stated), the Potency was inconclusive: 44.7 µM [inhibitor, partial curve, poor fit]. In the case of `COc1cccc(N2C(=O)NC(=NC3CCCCC3)C23CCN([S+](=O)([O-])c2cccs2)CC3)c1`, the Potency was “inactive”. With `Fc1ccc(CN2CC[C@H](c3nc4cc(Cl)ccc4o3)C2)cc1F` the Potency was inconclusive: 112 µM [inhibitor, partial curve]. With `COCCc1noc(-c2ccccc2OC2CN(C(=O)CCn3nc(C)cc3C)C2)n1` the Potency was “inactive”. For `CC(C)CCO[C@H]1COCCN(Cc2ccccn2)C1`, the Potency was “inactive”. With `O=C(NCc1cccs1)c1cn2cc(-c3ccccc3)sc2n1` the Potency was inconclusive: 44.7 µM [inhibitor, partial curve, poor fit]. With `COc1ccccc1-c1ccc(C(=O)N2CCC(C(=O)Nc3ccccc3Cl)CC2)cc1` the Potency was inconclusive: 44.7 µM [inhibitor, partial curve, poor fit]. For `CCCN(C)C(=O)c1onc(-c2ccc(F)cc2)c1[C@H](C)O`, the Potency was inconclusive: 112 µM [inhibitor, partial curve, poor fit]. With `Cc1cc(-c2cc3c(cn2)CN(CC2CCOC2)CCN3)ccn1` (configuration not stated) the Potency was inconclusive: 79.4 µM [inhibitor, partial curve, poor fit]. With `COc1ccc(NC(=O)C2CCc3nnc(C4CCN(C(C)=O)CC4)n32)cc1` (configuration not stated) the Potency was “inactive”.
